Among all 150,000 compounds or so, about 540 (0.36%) showed an effect of 50% or more. Some of the results follow.
tested on: Plasmodium falciparum; test: Primary screen in NF54 nanoGlo assay, in single point, at 2uM, 72h; a lower Z score goes with more inhibition; format: functional, Erythrocyte; details: timepoint 72 hour

| SMILES | % Inhibition [%] | Z score |
| --- | --- | --- |
| O=C(COc1cccc(Cl)c1)N1CCC2(CC1)OCCO2 | -5 | 0.77 |
| CC(C)NC(=O)c1cc(N2CCN3CCC[C@H]3C2)ccn1 | -3 | 0.6 |
| COC1CC2CCC(C1)N2Cc1cnoc1C (centres undefined) | 9 | -1.27 |
| Brc1cncc(CNC23CCCCC2C3)c1 (centres undefined) | -7 | 1.14 |
| Cn1c(=O)oc2c(C(=O)Nc3cccnc3-c3ccccc3)cccc21 | -10 | 1.87 |
| COc1ccccc1CCCNC(=O)N1CCN([C@H]2CN3CCC2CC3)CC1 | -15 | 1.98 |
| c1csc(O[C@H]2CN3CCC2CC3)n1 | -1 | 0.1 |
| O=c1c2c([nH]c3c(F)ccc(F)c13)CCNC2 | 6 | -1.16 |
| O=c1[nH]c2ccccc2cc1CN1CCO[C@H]2COCC[C@H]21 | -8 | 1.36 |
| COCCCN1CC2CCC1CN2CCCOC | 6 | -0.65 |
| Cc1cccc(OCC(=O)N2C[C@H]3COc4ccccc4C[C@@]3(C(=O)O)C2)c1 | -6 | 0.75 |
| NC(=O)c1ccc(N2C(=O)NC(=O)C3(Cc4ccccc4N4CCOCC43)C2=O)cc1 (centres undefined) | -44 | 5.18 |
| C[C@@H](Cc1cnccn1)N(C)Cc1ccc(-c2nn[nH]n2)cc1 | -12 | 2.02 |
| CN(C)c1ccc(-c2noc([C@@]34CCCC[C@@H]3NCC4)n2)nc1 | -9 | 1.83 |
| CCNC(=O)N1CC2CN(C(C)C)CC(C1)O2 | -7 | 0.9 |
| Cc1nc(-c2ccccc2)cc([C@H]2CN3CC[C@H]2C[C@@H]3CNC2CCN(C)CC2)n1 | 18 | -2.89 |
| N#Cc1cnc(O[C@H]2CN3CCC2CC3)c(Cl)c1 | 5 | -0.7 |
| FC(F)(F)C1CCCC(NCC2COC3(CCOCC3)O2)C1 (centres undefined) | -11 | 1.45 |
| COc1ccccc1[C@@H]1CN(c2ncnc3[nH]cnc23)[C@@H]2C3CCN(CC3)[C@@H]21 | -4 | 0.75 |
| COCCCNC(=O)c1c(CC2CCCC2)n(Cc2cccnc2)c(C)cc1=O | 7 | -1.26 |
| Cc1cc(C)nc(O[C@H]2CN3CCC2CC3)n1 | -7 | 0.99 |

| SMILES | % Inhibition [%] | Z score |
| --- | --- | --- |
| Fc1ccc(N2CCC[C@H]2c2cccnc2)nc1 | 3 | -0.62 |
| CC1(C)C[C@@H]2C[C@@](C)(CN2Cc2cnc(NCC(=O)O)nc2)C1 | -7 | 0.68 |
| O=C(Cc1c(F)cccc1Cl)NCC1CCN(C(=O)Oc2ccccc2)CC1 | -6 | 0.98 |
| O=C1CCN(Cc2cnc3ccccc3c2)[C@H]2CCCN12 | 18 | -2.23 |
| Cc1nc2c(c(N3C[C@@H]4C[C@@H](C3)c3cccc(=O)n3C4)n1)CNC2 | -7 | 0.84 |
| COCCn1nnnc1[C@]1(N2CCOCC2)CCCN(C(=O)Cc2ccccc2Cl)C1 | 7 | -1.25 |
| C[C@@H](Cc1cnccn1)N(C)Cc1ccc(Cl)o1 | -5 | 0.87 |
| CCc1nccc(CN2CCC[C@H](C(=O)c3ccccn3)C2)n1 | -13 | 1.32 |
| CC(C)NC(=O)OC[C@H]1C[C@@H]2CCN1C[C@@H]2c1cc(C2CCCC2)nc(-c2ccncc2)n1 | 32 | -3.72 |
| CN(Cc1ccccc1)C[C@H]1C[N@@]2CC[C@H]1C[C@@H]2CNC(=O)c1ccccc1 | 11 | -1.99 |
| O=C1NC2(CCNCC2)N=C1c1cccs1 | -15 | 1.8 |
| Cc1n[nH]c(C)c1CC(=O)N1CCN(CC(=O)C2CC2)CC1 | -10 | 1.03 |
| O=c1oc2ccccc2n1CN1CCC[C@H](c2nc3ccccc3s2)C1 | 0 | 0.02 |
| O=C(Cc1c[nH]c2ccccc12)N1CCN(Cc2nnn3c2CO[C@H](c2cccc(F)c2)C3)CC1 | -6 | 0.79 |
| O=c1cccc2n1C[C@@H]1C[C@H]2CN(O)C1 | -9 | 0.81 |
| O=C(NC1CCN2CCCCC12)c1cc(Cl)c[nH]1 (centres undefined) | 8 | -1.17 |
| C[C@H](O)CN1CCN(C(=O)Cc2ccoc2)CC1 | -13 | 1.41 |
| CC(=O)Nc1ccc(Cc2nc(-c3ccc4c(c3)oc(=O)n4C(C)C)no2)cc1 | -10 | 0.99 |
| Nc1nccc(N2C[C@H](c3ccccc3)[C@@H]3[C@H]2C2CCN3CC2)n1 | 3 | -0.48 |
| CCN1C[C@]2(OC(=O)c3ccccc3N)CC[C@H](OC)[C@]34C1[C@H](C[C@H]23)[C@@]1(O)C[C@H](OC)[C@H]2C[C@@H]4[C@]1(O)[C@H]2OC | -2 | 0.2 |
| CC(C)c1nc(C2CCN(C(=O)c3cccc4[nH]c(=O)oc34)CC2)no1 | 6 | -1.02 |

| SMILES | % Inhibition [%] | Z score |
| --- | --- | --- |
| O=C(NCc1ccccc1)[C@H]1CN2CC[C@H]1C[C@@H]2Cn1cc(CO)nn1 | 31 | -3.52 |
| Cc1ccc(OCc2c(C(=O)N[C@@H](C)c3nccs3)c(=O)cc(C)n2CCN2CCOCC2)cc1 | -9 | 0.99 |
| Cc1cccc(CN(Cc2ccccc2)C(=O)N[C@H]2CN3CCC2CC3)n1 | -5 | 0.58 |
| CC(C)(C)OC(=O)NC1CCC2CN(Cc3cccnc3)CC21 (centres undefined) | -6 | 1.11 |
| CN1C2CCC1CC(Oc1ncc(Br)cn1)C2 (centres undefined) | -6 | 0.87 |
| CCC(CC)c1cc([C@H]2CN3CC[C@H]2C[C@@H]3CNC(=O)CCCC(=O)O)nc(-c2ccncc2)n1 | 3 | -0.52 |
| C[C@H](NCCc1cccc(F)c1)c1cn2ccccc2n1 | -10 | 1.14 |
| Cc1nc(CC(=O)N(CCN2CCCC2)Cc2ccccc2)cs1 | 3 | -0.39 |
| Cc1cccc(CN(C(=O)c2ccn(C(C)C)n2)C2CCCCC2)c1 | -12 | 1.3 |
| O=C(NC1CC1)[C@H](Nc1ccc2oc(=O)[nH]c2c1)c1ccccc1 | 1 | -0.13 |
| Cc1cc([C@H](C)NCC(=O)N2CCC3(CC2)OCCO3)c(C)s1 | -12 | 1.41 |
| COC1CCN(C2CN(C(=O)COc3ccc(Cl)cc3)C2)CC1 | -4 | 0.84 |
| CCNC(=O)N1C[C@@H](c2cc(F)cc(F)c2)[C@@H]2[C@H]1C1CCN2CC1 | -3 | 0.41 |
| O=C(NCc1nc(=O)o[nH]1)[C@H]1C[C@@H]1c1ccc(F)cc1F | 4 | -0.56 |
| COc1ccccc1[C@@H]1CN(Cc2nnc(C)s2)[C@@H]2C3CCN(CC3)[C@@H]21 | -15 | 1.49 |
| CCS(=O)(=O)N1C[C@@H](c2ccc(F)cc2)[C@@H]2[C@H]1C1CCN2CC1 | 1 | -0.13 |
| CCN1CCOC[C@H]1C(=O)n1nc2cc(OC)ccc2c1N | -7 | 1.24 |
| CCn1c(=O)oc2ccc(C(=O)NCCCc3ccccc3)cc21 | 3 | -0.36 |
| C[C@@H](C(N)=O)N1CCOC2(CCCCCC2)C1 | -15 | 1.91 |
| CN(C(=O)Cc1cccnc1)[C@H]1CCCN(CCCc2ccccc2)C1 | -9 | 1.45 |
| COc1ccc2c(-c3c(C#N)c(N)nc4c3[C@@H]3CC[C@H](C4)N3C)n[nH]c2c1 | 7 | -0.86 |

| SMILES | % Inhibition [%] | Z score |
| --- | --- | --- |
| COC(=O)[C@H]1[C@@H](C(=O)NC2CC(=O)N(C)C2)[C@@H]2CC[C@@H]1N2C(=O)OC(C)(C)C (some centres undefined) | -10 | 1.51 |
| O=C(CCc1nc(C2=CCN(Cc3ccc(Cl)cc3)CC2)no1)N1CCc2ccccc2C1 | -9 | 1.2 |
| OC(c1ccccc1)(c1ccccc1)[C@H]1C[N+]2(Cc3ccccc3)CCC1CC2 | 11 | -1.25 |
| Cc1cc(Cl)c(C(=O)N2CCC[C@H](c3n[nH]c(=O)o3)C2)cc1C | -5 | 0.9 |
| CC(C)CCOc1ccc(CCN)cc1 | 3 | -0.48 |
| O=C(Nc1nnc(N2CC3CC(C2)c2cccc(=O)n2C3)s1)C(F)(F)F (centres undefined) | 34 | -3.88 |
| O=S1(=O)N[C@@H]2CN(CC3CC3)C[C@@H]2Oc2ncccc21 | -11 | 1.59 |
| NCCc1ccc(F)c(Br)c1 | -13 | 1.15 |
| CC(C)CC[C@H](C)NC(=O)c1cccc2oc(=O)[nH]c12 | -6 | 0.57 |
| CO[C@H]1C[C@H]2CC[C@@H](C1)N2CCCOc1ccc(F)cc1 | 7 | -1.23 |
| CC(C)CN1CC[C@H](C(=O)N2CCC3(CC2)OCC(C)(C)CO3)C1 | -6 | 0.57 |
| CCOc1ccc2nc(CN3CCCN4CCC[C@H]4C3)ccc2c1 | -12 | 1.45 |
| Cc1ncc(CN2CC3(CCCOC3)C2)s1 | -2 | 0.33 |
| FC(F)(F)C1CCCC(NC2CCOC(C3CC3)C2)C1 (centres undefined) | -2 | 0.3 |
| CC(NCc1nnnn1C(C)C)C(C)c1ccccc1 (centres undefined) | 7 | -1 |
| O=c1[nH]c2cc(S(=O)(=O)N3CC[C@H](Oc4ncc(F)cn4)C3)ccc2o1 | -2 | 0.4 |
| CC(C)=CCN1C[C@@H]2CC[C@H]1CN(Cc1cc(=O)[nH]c(=O)[nH]1)C2 | 5 | -0.64 |
| COC(C)(C(=O)N1CCCC(c2n[nH]c(=O)o2)C1)c1ccccc1F (centres undefined) | -5 | 0.74 |
| Cc1nc(CN2CCC[C@H](N(C)C(=O)Cc3cccc(OC(C)C)c3)C2)no1 | -7 | 1.01 |

Reference: ChEMBL document CHEMBL4888484, “Replenishing the malaria drug discovery pipeline: Screening and hit evaluation of the MMV Hit Generation Library 1 (HGL1) against asexual blood stage Plasmodium falciparum ,using a nano luciferase reporter read-out” (2022)
